Reference: PubChem BioAssay AID1345083 (National Center for Advancing Translational Sciences (NCATS), 2018)
Among all 94,000 compounds or so, about 6,200 (6.6%) were called active. The inconclusive results got no clear call from the source; some entries with a clear call stand among them for comparison. The call rests on the fitted dose curve; in most records, active means well fitted inhibition curve with a large enough effect; inconclusive means small, poorly fitted or top-dose-only effect; inactive means flat fitted curve, though single readings scatter. Potencies beside an inconclusive call are fits to weak or partial responses and may not hold up.
Potency means the concentration at half of the fitted maximal effect; tags describe the fitted curve by direction and shape.

Assay: Cytotoxic Profiling in HEK 293 Cell Line of Diverse Libraries Using Quantitative High-Throughput Screening; further: nearly all actives have a fitted effect of over 60% in size
Conditions: HEK 293 viability, ATP luminescence (CellTiter-Glo), 48-72 h; series mostly up to 115 µM
Method in brief: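 CellTiter-Glo luminescence (cellular ATP) was read after 48 or 72 hr of compound exposure at 37 degree Celsius. Cells were HEK 293 plated at 250 cells/well.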
With `COc1ccccc1-c1noc(-c2nc(-c3ccc4c(c3)OCO4)no2)n1` the Potency was “inactive”. For `CC1(COc2ccccc2)COc2ccc(C(=O)NCCc3ccccn3)cc2N1` (stereo not drawn), the Potency was inconclusive: 100 µM [inhibitor, partial curve, poor fit]. In the case of `O=C(NCc1cccnc1)c1ccc2oc(-c3ccc(C(F)(F)F)cc3)nc2c1`, the Potency is reported as active: 11.2 µM. For `O=C1CCN(Cc2ccc(C(F)(F)F)cc2)CCCC(c2nc(-c3cnccn3)no2)CCN1` (stereo not drawn), the Potency was inconclusive: 31.6 µM [inhibitor, partial curve, poor fit]. For `O=C(c1ccsc1)N1CCC2(CC1)NC(=O)N(Cc1ccccc1)C2=O`, the Potency was “inactive”. With `COc1cccc(-c2cccc(CN3CCCC(C)(NC(C)=O)C3)c2)c1` (stereo not drawn) the Potency was inconclusive: 56.2 µM [inhibitor, partial curve, poor fit]. For `O=c1[nH]c(C2CCN(Cc3ccccc3)CC2)nc2ccc(F)cc12`, the Potency was inconclusive: 126 µM [inhibitor, single point]. In the case of `c1ccc(Oc2ccccc2-c2cc(-c3cn[nH]c3)c3cncn3c2)cc1`, the Potency is reported as inconclusive: 44.7 µM [inhibitor, partial curve, poor fit]. In the case of `O=C1CC2(CCN(C(=O)C3CCCN3C(=O)c3ccccc3)CC2)Oc2ccccc2N1` (stereo not drawn), the Potency is reported as “inactive”. For `Cc1ccc(C(=O)N2CCC3(CC2)N(C)C(=O)CS3(=O)=O)c(C)c1`, the Potency was “inactive”. In the case of `CN(CC1CC1)C(=O)c1coc(CN2CCN(c3ccccc3F)CC2)n1`, the Potency is reported as inconclusive: 79.4 µM [inhibitor, partial curve]. For `COc1ccc2nc3n(c2c1)[C@@H](CNS(=O)(=O)c1ccc(F)cc1)COC3`, the Potency was “inactive”. For `O=C(NCc1ccc(F)c(F)c1)c1nc2sccn2c1-c1ccc(F)cc1`, the Potency was inconclusive: 50.1 µM [inhibitor, partial curve, poor fit]. With `Cc1ccc(S(=O)(=O)N2CCC(n3cnnc3-c3ccccc3)CC2)cc1C` the Potency was inconclusive: 35.5 µM [inhibitor, full curve]. For `Cc1ccc(CN2Cc3[nH]cnc3C[C@H]2c2nc(C(C)C)no2)cc1`, the Potency was inconclusive: 112 µM [inhibitor, partial curve, poor fit]. With `COC(=O)C1=C(C)N=C2SC=C(CC(=O)NCc3cccc(F)c3)N2C1c1cccc(OC)c1` (stereo not drawn) the Potency was inconclusive: 50.1 µM [inhibitor, partial curve, poor fit]. In the case of `O=C(NCc1ccccc1Cl)c1ccc2nnc(-c3cc(C(F)(F)F)cc(C(F)(F)F)c3)n2c1`, the Potency is reported as inconclusive: 20 µM [inhibitor, full curve]. For `O=C(c1ccc(F)cc1)N1CCC(N2CCCNC2=O)CC1`, the Potency was “inactive”. With `CCOC(=O)[C@H]1C[C@]2(CCCCN(CCOC)C2=O)N(C(=O)COC(C)=O)[C@H]1c1ccccc1` the Potency was “inactive”. In the case of `CCC(C)NC(=O)N1CC(c2nc(CCOCC3CCOCC3)no2)C1` (stereo not drawn), the Potency is reported as “inactive”. For `O=[S+]1([O-])[C@@H](Cc2ccccc2)[C@H](COCc2ccccc2)CN1c1ccccc1`, the Potency was inconclusive: 35.5 µM [inhibitor, full curve]. For `CN1CCC(OCCCn2cnc3cn(C)nc3c2=O)CC1`, the Potency was “inactive”. With `COc1ccc(Nc2nccc3c(=O)cc(-c4ccccn4)oc23)cc1OC` the Potency was inconclusive: 126 µM [inhibitor, single point]. With `Cc1c(CN2C[C@@H](COc3ccccc3)[C@H](C(N)=O)C2)cnn1C` the Potency was “inactive”. For `COc1ccc(NC(=O)[C@@H]2C[C@@H](c3ccc(F)cc3)N(Cc3ccccc3)C2)cc1`, the Potency was inconclusive: 70.8 µM [inhibitor, partial curve]. For `O=C(C1CCN([S+](=O)([O-])c2cccc(C(F)(F)F)c2)CC1)N1CCCC(c2nc3ncccc3[nH]2)C1` (stereo not drawn), the Potency was inconclusive: 50.1 µM [inhibitor, partial curve, poor fit]. In the case of `CSc1ccc(C(=O)N2CC(=O)N(CC3CC3)CC(C)(C)C2)cc1`, the Potency is reported as “inactive”. In the case of `O=C(CCn1ccn2nc3c(c2c1=O)CCCC3)NC1CCCCCC1`, the Potency is reported as “inactive”. In the case of `O=C(NCc1cccc(F)c1)c1cnc2c(c1)N(Cc1ccccc1)CCC2`, the Potency is reported as inconclusive: 50.1 µM [inhibitor, partial curve, poor fit]. For `Cc1noc2c(NCC3CCOCC3)cc(-c3ccc(F)cc3)nc12`, the Potency was inconclusive: 126 µM [inhibitor, single point]. In the case of `CN(Cc1cccc(N2CCN(Cc3c(Cl)ccc(Cl)c3Cl)CC2)c1)[S+](C)(=O)[O-]`, the Potency is reported as inconclusive: 20 µM [inhibitor, full curve, poor fit]. In the case of `Cc1ccc(NC(=O)N2CCc3c(C(=O)NC(C)C)cccc32)cc1`, the Potency is reported as inconclusive: 50.1 µM [inhibitor, partial curve, poor fit]. With `O=C(c1nnc(CN2CCN(c3ccccn3)CC2)n1-c1ccccc1)N1CCC[C@@H]1c1nc2ccccc2[nH]1` the Potency was inconclusive: 89.1 µM [inhibitor, partial curve, poor fit]. For `N#Cc1ccc(CN2CCC3(CC2)CNC(=O)c2ccccc2O3)cc1`, the Potency was inconclusive: 100 µM [inhibitor, partial curve, poor fit]. In the case of `CN(CCC(O)c1ccccc1)C(=O)c1coc(Cn2cnc3ccccc32)n1` (stereo not drawn), the Potency is reported as “inactive”. For `COc1cccc(C(=O)Nc2ccc3c(c2)CN(Cc2cccc(OC)c2OC)C(=O)C(C)O3)c1` (stereo not drawn), the Potency was active: 28.2 µM. For `CCNc1nccc(N2CCC(CC(=O)N3CCN(c4ccccc4F)CC3)CC2)n1`, the Potency was inconclusive: 22.4 µM [inhibitor, partial curve, poor fit]. For `Cc1noc2c(NCc3cccnc3)cc(-c3ccc(F)cc3)nc12`, the Potency was inconclusive: 100 µM [inhibitor, partial curve]. With `COc1ccccc1C(=O)NCC1Cn2cccc2C(=O)N1CC(C)C` (stereo not drawn) the Potency was inconclusive: 89.1 µM [inhibitor, single point]. In the case of `COCCNC(=O)CCCN1C(=O)COc2ccc(C(=O)COc3cc(C)ccc3F)cc21`, the Potency is reported as inconclusive: 100 µM [inhibitor, single point]. With `CN(Cc1ccccc1)C(=O)[C@@H]1Cc2nc[nH]c2CN1C(=O)CCC(=O)O` the Potency was “inactive”. For `CNC(=O)[C@@H]1C[C@@H](n2cc(C(C)(C)NC(=O)c3cccc(Cl)c3)nn2)CN1`, the Potency was “inactive”. With `CC1=C[C@@H](CNC(=O)Nc2cccc(C#N)c2)[C@H](C(C)C)C[C@H]1CC(=O)NCc1ccccn1` the Potency was inconclusive: 50.1 µM [inhibitor, partial curve, poor fit]. For `Fc1ccccc1-c1cc2c(cn1)CN(Cc1ccncc1)CCN2`, the Potency was inconclusive: 89.1 µM [inhibitor, partial curve, poor fit]. With `Cc1[nH]ncc1CNC(=O)CN1CCCc2nc(-c3ccccc3)ncc2C1=O` the Potency was “inactive”. With `O=C(CC1CCCN(c2cnn(CC3CC3)c(=O)c2)C1)NCc1ccccc1` (stereo not drawn) the Potency was inconclusive: 28.2 µM [inhibitor, full curve, poor fit]. In the case of `O=C(Nc1nn(Cc2ccccc2)c2cccc(N3CCOCC3)c12)C1CCC1`, the Potency is reported as inconclusive: 79.4 µM [inhibitor, partial curve, poor fit]. For `CN(C)C(=O)c1cccnc1OC1CCN(CCc2ccccc2)CC1`, the Potency was “inactive”. In the case of `CC(C)NC(=O)N1CCC2(CC1)CC(c1cccc(C(F)(F)F)c1)=NO2`, the Potency is reported as inconclusive: 89.1 µM [inhibitor, single point]. In the case of `O=C1NCCCCCN(C(=O)c2ccsc2)[C@@H]2C[C@@H](C(=O)N3CCc4ccccc4C3)C[C@H]12`, the Potency is reported as inconclusive: 89.1 µM [inhibitor, single point]. For `COc1cccc(-c2ccc3ncn(-c4ccc(F)cc4F)c(=O)c3n2)c1`, the Potency was inconclusive: 79.4 µM [inhibitor, partial curve, poor fit]. For `Cc1ccsc1C(=O)N1CCCC(n2cc(-c3nc(C(C)C)no3)nn2)C1` (stereo not drawn), the Potency was inconclusive: 89.1 µM [inhibitor, single point]. In the case of `COc1cccc(CNC(=O)Cn2c(-c3ccc(F)cc3)nc(C)cc2=O)c1`, the Potency is reported as inconclusive: 50.1 µM [inhibitor, partial curve, poor fit]. For `COc1ccc(-c2noc([C@@H]3CCCN3C(=O)Cc3ccccc3OC)n2)cc1`, the Potency was inconclusive: 56.2 µM [inhibitor, partial curve, poor fit]. For `O=C(c1cccc(Cl)c1)N1CCC(c2n[nH]c(=O)n2-c2ccccc2)CC1`, the Potency was “inactive”. With `Cc1nnc2ccc(N3CCC(NC(=O)c4ccccc4F)C3)nn12` (stereo not drawn) the Potency was inconclusive: 79.4 µM [inhibitor, partial curve, poor fit]. For `COC(=O)[C@@H]1Cc2ncn(Cc3ccc(OC)cc3)c2CN1Cc1cccc(C#N)c1`, the Potency was inconclusive: 100 µM [inhibitor, partial curve, poor fit]. In the case of `COc1nc2nc(CC3CC3)n(C)c2cc1-c1ccc(O)c(F)c1`, the Potency is reported as inconclusive: 79.4 µM [inhibitor, partial curve, poor fit]. For `CC(=O)N1CC2(CCCCN2Cc2ccc(Cl)cc2)Cc2ccccc21` (stereo not drawn), the Potency was inconclusive: 89.1 µM [inhibitor, single point]. For `CC(C)CNc1ccc2c(n1)C(C)(C(=O)NC1COC1)CN(Cc1ccccc1)C2` (stereo not drawn), the Potency was inconclusive: 63.1 µM [inhibitor, full curve, poor fit]. For `O=C(Cc1ccccc1F)N1CCC(CCOc2ccccc2)C1` (stereo not drawn), the Potency was inconclusive: 79.4 µM [inhibitor, partial curve, poor fit]. In the case of `CCn1nccc1C(=O)N1CC(Oc2cccc(-c3nc(C)no3)c2)C1`, the Potency is reported as inconclusive: 35.5 µM [inhibitor, partial curve, poor fit]. In the case of `COC1C(=O)N(C2CCN(C(=O)c3sc(C)nc3C)CC2)C12CCOCC2` (stereo not drawn), the Potency is reported as “inactive”.
